Assay results published in PubChem BioAssay AID588855 (National Center for Advancing Translational Sciences (NCATS), 2011).
Screen size: about 410,000 compounds; about 5,000 (1.2%) were called active. The shares of active, inactive and inconclusive entries below differ from those in the screen. Calls follow the shape of the dose curve; as a rule, active = well fitted inhibition curve with a large enough effect; inconclusive = small, poorly fitted or top-dose-only effect; inactive = no such curve, though single readings can be large or run the other way. Potencies of inconclusive entries are doubtful fits and often do not repeat.

Test: qHTS for Inhibitors of TGF-b; also: nearly all actives have a fitted effect of over 65% in size
Conditions: HepG2 CAGA-GFP TGF-b/SMAD3 reporter, GFP fluorescence, 18 h, TGF-beta stimulated, 500 pg/mL final; series mostly up to 46.1 µM
Description: TGF-b is a main component in the TGF-b signaling pathway which plays diverse roles in cellular and development pathways. TGF-b is the mediated by the transcription factors Smads. Although the Smad-dependent pathway is the primary canonical TGF-b signaling node, TGF-b1 can also activate alternative signaling pathways, including those involving MAPK (ERK, JNK and p38). This interaction may mediate or enhance Smad-dependent responses, or can exert Smad-independent effects. The complexity of this signaling cascade allows the TGF-b superfamily to perform unique, overlapping or redundant functions. We believe that targeting the TGF-beta pathway at the Smad-transcription factor level may eliminate the consequences of disrupting the entire pathway and offer specificity without affecting other signaling pathways. Smad3 is the primary transducer of TGF-b's signals and Smad3 regulates many functions attributed to TGF-b signaling. We hypothesize that Smad3 inhibitors will selectively eliminate Smad3-specific TGF-beta signals without undesired off-target effects. We aim to identify Smad3-small molecule antagonists using a quantitative high throughput screening (qHTS) approach.
A high-throughput assay was developed to screen the NIH Molecular Libraries Small Molecule Repository (MLSMR). This is a cell based assay, where TGF-b is tagged with GFP. A counterscreen is run that looks at cytotoxicity (please see summary AID).
MH087449NIH Chemical Genomics Center [NCGC]
NIH Molecular Libraries Probe Centers Network [MLPCN]
Assay Submitter (PI): Sushil Rane, National Institute of […]
Suspensions of trypsinized HEPG2 CAGA-GFP cells were dispensed into white, tissue culture-treated, solid 1536-well plates at 5uL/well (1000 cells/well final concentration) in DMEM medium supplemented with 1% FBS. Plates were incubated at 37 degrees C for 2 hours, after which 23 nL of compounds or DMSO were delivered to each well using a pin tool. One uL of recombinant TGF-beta in DMEM (1% FBS) was then dispensed (500 pg/mL final concentration), and plates were incubated at 37 degrees C for 18 hours. The plates were measured on an Acumen eX3 Explorer plate reader for GFP fluorescence (ex488/em500-530). GFP values were calculated by determining the mean GFP fluorescence of individual cells, and compiling these values for each well to determine a total well GFP signal. The %Activity was determined from the corrected fluorescence values. A titration of the known TGF-B inhibitor SB431542 was included to monitor plate performance, while unstimulated HEPG2 (-TGF-B) control wells were used to normalize %Activity of identified inhibitors; unstimulated wells corresponded to 100%Activity (full inhibition), while stimulated cell controls (+DMSO) were used to normalize 0%Activity (no inhibition).
Concentration-response curves were fitted to the signals arising from the resulting fluorescence. The concentration-effect curves were then classified based on curve quality (r2), response magnitude and degree of measured activity, and compounds were subsequently categorized based on their curve class.
Potency is read from the fitted curve at half-maximal effect; tags tell the direction and shape of the fitted curve.

Row | SMILES | Potency
1 | CCN(CC)CCCNC(=O)C1c2ccccc2C(=O)N(C)C1c1ccc(OC)cc1 (stereo not given) | inactive
2 | C=C1CC(COc2cc(=O)oc3ccccc23)(c2ccccc2)OC1=O (stereo not given) | active: 5.01 µM
3 | CC1=CC=CC2=NC(=O)CC(C)(C(=O)N(CC(=O)NC3CCCC3)Cc3ccc(Cl)cc3)N12 (stereo not given) | inconclusive: 0.355 µM [inhibitor, full curve, poor fit]
4 | COc1ccc(-c2nc(CCNC(=O)c3cc(OC)c(OC)c(OC)c3)cs2)cc1 | inconclusive: 17.8 µM [inhibitor, partial curve, poor fit]
5 | COCCCNC(=O)/C(C#N)=C/c1cccc(NC(=O)c2ccccc2Cl)c1 | inconclusive: 35.5 µM [inhibitor, single point]
6 | Cc1sc(NC(=O)CN(Cc2ccccc2)C(=O)C(C)C)c(C(N)=O)c1C | inconclusive: 25.1 µM [inhibitor, partial curve]
7 | S=C1NC[C@H](Cc2cccc3ccccc23)N1CC1CCCCC1 | inconclusive: 28.2 µM [inhibitor, partial curve, poor fit]
8 | COc1ccc(NC(=O)CCOc2ccc(C)cc2)cc1S(=O)(=O)N1CCCCC1 | inconclusive: 8.91 µM [inhibitor, partial curve, poor fit]
9 | Cc1cc(C)n(-c2ccc(Cl)c(C(=O)OCC(N)=O)n2)n1 | inactive
10 | Cc1cc(CNC[C@H]2O[C@@H](n3ccc(=O)[nH]c3=O)[C@H](O)[C@@H]2O)no1 | inactive
11 | Cc1ccc(Cn2c(=O)c3c(nc4n3CCN4c3cc(C)cc(C)c3)n(C)c2=O)cc1 | inactive
12 | Cc1ccc2nc(SCC(=O)Nc3cc(C(F)(F)F)ccc3N3CCOCC3)[nH]c2c1 | active: 10 µM
13 | COc1ccc(CCN2C(=O)CC(Cc3ccccc3)C2=O)cc1OC (stereo not given) | inconclusive: 5.62 µM [inhibitor, single point]
14 | CC(C)Oc1ccc(OCCCN2CCCCCC2)cc1 | inactive
15 | CC1(C)CC(C(=O)Nc2ccccc2)C(=O)O1 (stereo not given) | inactive
16 | NCCCCCc1nnc(SC/C=C/c2ccccc2)o1 | inconclusive: 6.31 µM [inhibitor, single point]
17 | CC1=CC(=C2C(=O)c3ccccc3C2=O)C=C(C)N1Cc1ccco1 | inconclusive: 22.4 µM [inhibitor, single point]
18 | C=CCOC(=O)N1CCC2CC1c1c(-c3ccc(C(F)(F)F)cc3)cccc12 (stereo not given) | inconclusive: 35.5 µM [inhibitor, single point]
19 | Cc1ccc(NC(=O)c2cccs2)cc1S(=O)(=O)Nc1cccc(Cl)c1 | inconclusive: 35.5 µM [inhibitor, single point]
20 | C=C(C)COc1ccc(-c2[nH]ncc2Oc2ccccc2OC)c(O)c1 | inconclusive: 22.4 µM [inhibitor, single point]
21 | C[C@H](CO)N1C[C@H](C)[C@H](CN(C)Cc2ccccc2)Oc2ccc(NC(=O)Nc3ccc(F)cc3)cc2C1=O | inconclusive: 10 µM [inhibitor, partial curve, poor fit]
22 | CCCCn1nc(C(=O)Nc2ccc(-n3cnnn3)cc2)c2ccccc2c1=O | inactive
23 | CCS(=O)(=O)c1ccc(O)c(NC(=O)/C=C/c2ccccc2)c1 | inactive
24 | CC(=O)Oc1ccccc1Cn1c(C)c(C(=O)NCc2cccc(Cl)c2)sc1=O | inconclusive: 17.8 µM [inhibitor, single point]

Row | SMILES | Potency
25 | CCCNC(=O)N[C@@H](CCSC)C(=O)OC | inconclusive: 20 µM [inhibitor, single point]
26 | COC(=O)CSC1=C(C#N)C(c2ccc(C)o2)CC(=O)N1 (stereo not given) | inactive
27 | Clc1ccc2nc(-c3ccc4c(c3)OCO4)cn2c1 | inactive
28 | Cc1cc(NC(=O)CN(C)CC(=O)Nc2ccc(F)c(F)c2F)no1 | inactive
29 | COc1ccc(-c2[nH]c(-c3ccc(OC)c(OC)c3)nc2SCC(=O)Nc2ccccc2)cc1 | inconclusive: 35.5 µM [inhibitor, single point]
30 | COc1cccc(NC(=O)C(C)C)c1 | inconclusive: 3.98 µM [inhibitor, single point]
31 | O=C(O)c1c[nH]c2c(C(F)(F)F)cccc2c1=O | inconclusive: 2.82 µM [inhibitor, partial curve, poor fit]
32 | Cc1ccc(C(=O)NC2CC(=O)N(c3ccc4c(c3)OCCO4)C2)cc1[N+](=O)[O-] (stereo not given) | inactive
33 | Cc1ccc(-c2nnc(Nc3ccc(Cl)cc3)c3ccccc23)cc1S(=O)(=O)NCC1CCCO1 (stereo not given) | inconclusive: 7.08 µM [inhibitor, partial curve, poor fit]
34 | CCN1C(=O)N(c2cccc3ccccc23)C(C)=CC1(C)C | inconclusive: 3.16 µM [inhibitor, single point]
35 | CC(C)(C)OC(=O)NCCCCCNC(=O)c1ncn2c1c(=O)[nH]c1ccccc12 | inactive
36 | NC(=O)C(c1ccc(F)cc1)c1ccc(C(=O)c2ccccc2)cc1 (stereo not given) | inconclusive: 35.5 µM [inhibitor, single point]
37 | CC(C)C(=O)N(Cc1ccc(F)cc1)Cc1nc2ccccc2c(=O)[nH]1 | inactive
38 | COc1ccc(C(=O)c2cn(Cc3ccccc3F)c3ccc(F)cc3c2=O)cc1 | inconclusive: 35.5 µM [inhibitor, single point]
39 | COc1ccc(OC)c(C2C=C(C34CC5CC(CC(C5)C3)C4)NC(=S)N2)c1 (stereo not given) | inconclusive: 5.62 µM [inhibitor, partial curve, poor fit]
40 | OC1c2cc(Br)ccc2N=C2CCCCCN21 (stereo not given) | inactive
41 | [2H]C(CCOS(N)(=O)=O)c1ccc(C(C)(C)C)cc1 (stereo not given) | inconclusive: 7.08 µM [inhibitor, partial curve, poor fit]
42 | CCOc1ccc(C(=O)NCCS(=O)(=O)N2CCN(c3cccc(Cl)c3)CC2)cc1 | inactive
43 | COc1cc(C(=O)N/N=C/c2cccc(Oc3ccccc3)c2)ccc1O | inconclusive: 14.1 µM [inhibitor, partial curve, poor fit]
44 | O=C(O)CC(CC(=O)O)c1ccsc1 | inactive
45 | O=c1c2c(nc3c(-c4cccc5ccccc45)c[nH]n13)CCC2 | inactive
46 | O=c1c2cc(Br)ccc2nc(-c2ccc([N+](=O)[O-])cc2)n1O | inconclusive: 22.4 µM [inhibitor, single point]
47 | CCO[C@H]1OC(C(=O)NCc2nc3ccccc3[nH]2)=C[C@@H](c2cn(C(C)=O)c3ccccc23)[C@@H]1CCCO | inconclusive: 10 µM [inhibitor, partial curve, poor fit]
48 | CCN1C(=NCC(C)C)N[C@@H](c2cccc(F)c2)C(C(=O)OC)=C1C | inactive

Row | SMILES | Potency
49 | O=[N+]([O-])c1ccc(-c2nc(NCc3cccnc3)c3ccccc3n2)cc1 | inactive
50 | C=C(NC(C)=O)c1c(F)cccc1F | inconclusive: 3.16 µM [inhibitor, partial curve, poor fit]
51 | C=CCN(Cc1ccc(Cl)s1)C(=O)c1ccc(F)c(S(=O)(=O)N2CCOCC2)c1 | inconclusive: 35.5 µM [inhibitor, single point]
52 | CCCCOc1cccc(C(=O)N(Cc2ccc(Cl)cc2)C2CCS(=O)(=O)C2)c1 (stereo not given) | inconclusive: 35.5 µM [inhibitor, single point]
53 | C[C@H]1CN([C@@H](C)CO)S(=O)(=O)c2ccc(Br)cc2O[C@H]1CN(C)C(=O)Cc1ccccc1 | inactive
54 | Cc1ccc2c(c1)c1c(n2CC(O)CNC2CCCCC2)CCCC1 (stereo not given) | inconclusive: 35.5 µM [inhibitor, single point]
55 | COC(=O)c1cnn(-c2ccc(F)cc2F)c1/C=N/NC(N)=S | inconclusive: 15.8 µM [inhibitor, single point]
56 | N#C/C(=N/Nc1ccccc1[N+](=O)[O-])C(N)=S | inconclusive: 35.5 µM [inhibitor, single point]
57 | COc1ccc(CCNC(=O)CN2CCN(c3ccccc3Cl)CC2)cc1 | inconclusive: 11.2 µM [inhibitor, single point]
58 | Cc1nn(-c2ccccc2)nc1C(=O)Nc1nnc(C(F)(F)F)s1 | inconclusive: 35.5 µM [inhibitor, single point]
59 | Cc1ccc(NC(=O)CN(C)C(=O)Cc2coc3cc(C)c(C)cc23)cc1 | inactive
60 | CCC1C(=O)CC(c2ccco2)NC1c1ccco1 (stereo not given) | inactive
61 | CCOC(=O)c1sc(NC(=O)COC(=O)CNC(=O)C2CCCCC2)c(C(=O)OCC)c1C | inconclusive: 3.98 µM [inhibitor, full curve, poor fit]
62 | Cc1ccc(C)c(NC(=O)COc2cccc3c2CCN(Cc2ccccc2C)C3=O)c1 | inconclusive: 6.31 µM [inhibitor, single point]
63 | CC1CN(C(=O)CCC(=O)NCc2cccs2)c2ccccc2O1 (stereo not given) | inactive
64 | COc1ccc(NC(=O)c2c(NCc3ccc(C)o3)sc3c2CCC(C)C3)cc1 (stereo not given) | inconclusive: 22.4 µM [inhibitor, single point]
65 | Cc1c(C(=O)NCc2cccs2)sc(=O)n1Cc1ccc(S(C)(=O)=O)cc1 | inactive
66 | CCOC(=O)c1ccc(NC(=O)c2nc(S(=O)(=O)Cc3ccccc3)ncc2Cl)cc1 | active: 3.55 µM
67 | Cc1ccccc1-n1c(C)nnc1SCC(=O)NC1CCCc2ccccc21 (stereo not given) | inactive
68 | Cc1cc(Oc2ccc3ccccc3c2)nc(SCC(=O)c2ccccc2)n1 | inconclusive: 28.2 µM [inhibitor, single point]
69 | NS(=O)(=O)c1ccc(CNC(=O)c2cc(-c3ccccn3)nc3ccc(Cl)cc23)cc1 | inconclusive: 6.31 µM [inhibitor, single point]
70 | Cc1cc2ccccn2c1C(=O)c1ccc(Cl)c([N+](=O)[O-])c1 | inconclusive: 25.1 µM [inhibitor, single point]
